Test [1] deals with FC-tagged PEAK1^WT (human) (UniProt Q9H792). Briefly: co-IP; HEK293T lysates overexpressing FC-Control, FC-tagged PEAK1 WT, truncations or mutants (in Fig. 5e with GFP-CSK co-overexpressed); co-precipitated ZO-1, CSK or Src read by blot.
Test [2] has as its target PEAK1 (Pseudopodium-Enriched Atypical Kinase 1), endogenous in Caco-2 cells (human (endogenous in Caco-2)) (UniProt Q9H792). In words: co-IP; endogenous proteins of Caco-2 lysates (RM buffer, 150 mM NaCl, 1% NP-40); anti-PEAK1, anti-ZO-1 or anti-CSK antibody and protein A sepharose, 4 °C; cells also PEAK1 knockout, CSK knockout, PEAK1 Y724F edited, 10 μM PP2 2 h, 100 nM BafA1 12 h.

Sequences of proteins named here, by UniProt entry; tags and fusion partners are left off. A change or cut given only in a name is not applied to a line headed by its entry. A line that says so, or that is headed by a name, gives the form on record, which may keep a tag or linker.
UniProt Q07157: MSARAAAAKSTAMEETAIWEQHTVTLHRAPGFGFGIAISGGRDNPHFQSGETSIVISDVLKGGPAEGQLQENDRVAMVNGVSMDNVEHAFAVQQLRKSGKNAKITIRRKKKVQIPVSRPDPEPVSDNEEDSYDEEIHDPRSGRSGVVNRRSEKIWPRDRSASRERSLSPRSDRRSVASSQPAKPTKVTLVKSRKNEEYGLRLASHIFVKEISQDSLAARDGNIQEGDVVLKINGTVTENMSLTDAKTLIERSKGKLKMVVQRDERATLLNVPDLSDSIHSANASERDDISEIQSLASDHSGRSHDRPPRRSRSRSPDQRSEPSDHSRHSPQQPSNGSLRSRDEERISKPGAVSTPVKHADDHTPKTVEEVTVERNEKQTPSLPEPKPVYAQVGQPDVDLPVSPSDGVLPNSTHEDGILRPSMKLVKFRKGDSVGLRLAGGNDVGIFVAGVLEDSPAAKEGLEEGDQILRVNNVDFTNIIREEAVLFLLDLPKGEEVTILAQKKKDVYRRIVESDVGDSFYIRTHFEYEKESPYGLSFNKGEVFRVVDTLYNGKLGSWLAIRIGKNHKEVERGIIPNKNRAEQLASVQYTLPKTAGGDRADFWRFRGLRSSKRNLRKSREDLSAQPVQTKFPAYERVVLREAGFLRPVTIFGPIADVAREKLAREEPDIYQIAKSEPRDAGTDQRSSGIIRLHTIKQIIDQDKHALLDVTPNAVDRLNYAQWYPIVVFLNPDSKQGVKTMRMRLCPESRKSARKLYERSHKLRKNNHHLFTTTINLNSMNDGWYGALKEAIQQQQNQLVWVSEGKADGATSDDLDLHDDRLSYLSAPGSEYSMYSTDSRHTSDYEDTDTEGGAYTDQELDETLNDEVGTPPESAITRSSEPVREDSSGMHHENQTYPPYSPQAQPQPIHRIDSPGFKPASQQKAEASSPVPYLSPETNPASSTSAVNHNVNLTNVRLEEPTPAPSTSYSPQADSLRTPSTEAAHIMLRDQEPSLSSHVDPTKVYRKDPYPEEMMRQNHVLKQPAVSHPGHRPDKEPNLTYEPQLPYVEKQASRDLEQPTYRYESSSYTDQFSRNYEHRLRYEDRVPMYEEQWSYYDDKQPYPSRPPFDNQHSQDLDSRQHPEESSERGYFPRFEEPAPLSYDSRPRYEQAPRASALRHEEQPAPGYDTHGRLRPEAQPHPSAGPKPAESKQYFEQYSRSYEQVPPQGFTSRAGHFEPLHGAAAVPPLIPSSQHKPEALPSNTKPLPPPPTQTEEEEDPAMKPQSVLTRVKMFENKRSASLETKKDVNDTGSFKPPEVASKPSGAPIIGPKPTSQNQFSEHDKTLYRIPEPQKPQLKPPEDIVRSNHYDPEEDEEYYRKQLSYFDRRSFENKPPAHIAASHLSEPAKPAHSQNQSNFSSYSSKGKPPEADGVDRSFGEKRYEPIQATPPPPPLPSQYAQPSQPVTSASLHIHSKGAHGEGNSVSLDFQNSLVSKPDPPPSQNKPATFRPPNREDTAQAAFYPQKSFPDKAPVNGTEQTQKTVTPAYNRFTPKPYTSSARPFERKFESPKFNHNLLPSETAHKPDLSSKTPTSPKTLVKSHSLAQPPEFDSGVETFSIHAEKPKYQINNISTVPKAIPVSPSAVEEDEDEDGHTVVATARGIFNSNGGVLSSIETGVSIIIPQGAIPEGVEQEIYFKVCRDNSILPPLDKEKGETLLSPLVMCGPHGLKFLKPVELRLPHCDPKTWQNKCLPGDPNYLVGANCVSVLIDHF
GFP-tagged mutant ZO-1 with a 1212-1217 amino acid deletion (Q07157, form named): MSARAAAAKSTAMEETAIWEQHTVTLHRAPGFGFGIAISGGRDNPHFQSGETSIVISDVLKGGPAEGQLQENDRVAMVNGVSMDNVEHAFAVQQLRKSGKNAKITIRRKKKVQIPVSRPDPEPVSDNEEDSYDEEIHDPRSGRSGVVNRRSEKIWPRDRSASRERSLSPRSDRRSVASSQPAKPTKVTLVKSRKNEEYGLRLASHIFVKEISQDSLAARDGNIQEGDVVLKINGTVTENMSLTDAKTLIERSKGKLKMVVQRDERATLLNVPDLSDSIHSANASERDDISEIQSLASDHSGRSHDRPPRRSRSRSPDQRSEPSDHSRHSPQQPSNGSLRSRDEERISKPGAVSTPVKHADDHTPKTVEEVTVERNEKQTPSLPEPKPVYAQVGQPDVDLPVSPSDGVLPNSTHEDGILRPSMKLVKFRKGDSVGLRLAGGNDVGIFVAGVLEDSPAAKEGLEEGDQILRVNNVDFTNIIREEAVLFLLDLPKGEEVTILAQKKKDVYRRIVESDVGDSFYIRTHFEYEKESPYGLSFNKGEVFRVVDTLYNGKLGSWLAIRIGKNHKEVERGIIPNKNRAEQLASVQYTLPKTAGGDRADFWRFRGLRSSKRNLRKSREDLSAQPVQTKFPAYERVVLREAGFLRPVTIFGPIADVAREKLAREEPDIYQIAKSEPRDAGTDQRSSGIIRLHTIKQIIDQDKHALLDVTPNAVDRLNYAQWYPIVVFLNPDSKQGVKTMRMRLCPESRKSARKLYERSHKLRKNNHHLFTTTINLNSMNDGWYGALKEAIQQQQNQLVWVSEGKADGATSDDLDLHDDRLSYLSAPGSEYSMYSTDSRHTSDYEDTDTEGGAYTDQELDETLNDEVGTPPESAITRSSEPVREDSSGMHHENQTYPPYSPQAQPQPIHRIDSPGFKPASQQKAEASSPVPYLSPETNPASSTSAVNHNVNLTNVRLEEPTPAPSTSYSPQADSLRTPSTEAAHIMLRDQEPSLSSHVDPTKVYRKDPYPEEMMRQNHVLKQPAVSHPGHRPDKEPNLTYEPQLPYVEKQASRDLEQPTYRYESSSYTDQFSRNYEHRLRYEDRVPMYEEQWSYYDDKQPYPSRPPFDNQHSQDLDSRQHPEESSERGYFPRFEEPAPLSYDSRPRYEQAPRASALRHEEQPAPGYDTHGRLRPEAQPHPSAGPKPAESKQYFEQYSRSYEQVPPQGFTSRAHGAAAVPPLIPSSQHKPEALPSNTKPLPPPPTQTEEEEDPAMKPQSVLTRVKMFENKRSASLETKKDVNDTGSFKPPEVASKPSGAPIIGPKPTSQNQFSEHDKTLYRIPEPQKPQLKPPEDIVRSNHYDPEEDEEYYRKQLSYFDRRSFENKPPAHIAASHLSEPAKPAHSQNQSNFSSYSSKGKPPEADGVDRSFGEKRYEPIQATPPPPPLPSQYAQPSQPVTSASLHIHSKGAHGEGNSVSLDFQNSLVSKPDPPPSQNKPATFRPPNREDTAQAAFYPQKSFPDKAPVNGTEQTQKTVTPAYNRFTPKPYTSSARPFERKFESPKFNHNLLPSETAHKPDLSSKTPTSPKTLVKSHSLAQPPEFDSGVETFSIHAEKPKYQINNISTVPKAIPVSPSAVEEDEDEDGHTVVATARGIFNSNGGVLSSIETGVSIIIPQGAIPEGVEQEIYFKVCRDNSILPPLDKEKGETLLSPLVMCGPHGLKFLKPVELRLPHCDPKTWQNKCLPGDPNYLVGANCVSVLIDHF
UniProt P41240: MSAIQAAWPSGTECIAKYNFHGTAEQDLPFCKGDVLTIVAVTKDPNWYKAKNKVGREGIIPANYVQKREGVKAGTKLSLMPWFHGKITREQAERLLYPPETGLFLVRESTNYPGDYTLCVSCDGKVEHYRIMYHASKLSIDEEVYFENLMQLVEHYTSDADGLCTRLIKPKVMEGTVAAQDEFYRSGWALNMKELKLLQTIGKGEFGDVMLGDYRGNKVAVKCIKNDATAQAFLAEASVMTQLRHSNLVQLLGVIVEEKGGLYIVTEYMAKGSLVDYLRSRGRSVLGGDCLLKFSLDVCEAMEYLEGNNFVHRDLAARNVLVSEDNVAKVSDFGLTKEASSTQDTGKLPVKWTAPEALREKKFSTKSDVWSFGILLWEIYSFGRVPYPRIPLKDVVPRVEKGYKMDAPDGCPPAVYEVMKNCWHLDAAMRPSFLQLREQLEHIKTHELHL

The target in test [3] is ZO-1, endogenous in Caco-2 cells (human (endogenous in Caco-2)) (UniProt Q07157). The test is described as above.
Test [4] deals with GFP-tagged mutant ZO-1 with a 1212-1217 amino acid deletion (human) (UniProt Q07157). Briefly: co-IP; HEK293T cells transfected with GFP-tagged ZO-1 (WT) or Δ1212-1217; co-precipitated LC-3B and PEAK1 read by blot.
Test [5] has as its target T1, GFP-tagged ZO-1 (human, UniProt Q07157 1-1748).
T1 construct: ZO-1, human cDNA cloned into pTriEx-GFP; last truncation ends at 1748; also called GFP-ZO-1; GFP-tagged ZO-1 (WT); source: HEK293T, transfected, in lysate; also purified from HEK293T (anti-GFP magnetic beads, glycine pH 2.5 elution)
Described as above.

Test [6] deals with FC-tagged PEAK1 8×S-A (human) (UniProt Q9H792). In words: co-IP; HEK293T lysates overexpressing FC-Control, FC-tagged PEAK1 WT, truncations or mutants (in Fig. 5e with GFP-CSK co-overexpressed); co-precipitated ZO-1, CSK or Src read by blot.
Test [7] addresses FC-tagged PEAK1 S725/726/727 A (human) (UniProt Q9H792). The test is described as above.
Test [8] deals with FC-tagged PEAK1 S718/719 A (human) (UniProt Q9H792). Described as above.
The target in test [9] is FC-tagged PEAK1 S723A (human) (UniProt Q9H792). The test is described as above.
The target of test [10] is FC-tagged PEAK1 S729/730 A (human) (UniProt Q9H792). The test is described as above.
In test [11] the target is T2, FC-tagged PEAK1 fragment spanning amino acids 700 to 750 (human) (UniProt Q9H792).
T2 sequence: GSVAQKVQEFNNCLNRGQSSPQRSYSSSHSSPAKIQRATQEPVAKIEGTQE
Described as above.

Test [12] has as its target PEAK1 (Pseudopodium-Enriched Atypical Kinase 1), endogenous in Caco-2 cells (human (endogenous in Caco-2)) (UniProt Q9H792). Briefly: co-IP; endogenous proteins of Caco-2 lysates (RM buffer, 150 mM NaCl, 1% NP-40); anti-PEAK1, anti-ZO-1 or anti-CSK antibody and protein A sepharose, 4 °C; cells also PEAK1 knockout, CSK knockout, PEAK1 Y724F edited, 10 μM PP2 2 h, 100 nM BafA1 12 h. The source holds these as a separate data set.

Test [13] concerns the target ZO-1, endogenous in Caco-2 cells (human (endogenous in Caco-2)) (UniProt Q07157). The test is described as above. This is another data set of the same source.

Read-outs that look alike come from different tables or passages of the source. Results are given in words; binding and its absence hold for the method and conditions named. Binding seen in cells or lysates may run through a third protein. Some binding calls cover weakened binding; strength is not graded here. For some of these results: Tags and fused reporters may be left off the sequences shown.

Turning to “CSK in HEK293T cell lysate (from UniProt P41240 1-450)”, the binding entry in test [1] is listed as “binds”.
Consider “CSK, endogenous in Caco-2 cells (from UniProt P41240 1-450)”, for which, in test [2], the binding entry is recorded as “binds”.
On to “PEAK1 Y724F, expressed from the edited gene in Caco-2 cells (from UniProt Q9H792 1-1746)”, for which, in test [3], the binding result is “no binding”.
As to “PEAK1 in HEK293T cell lysate (from UniProt Q9H792 1-1746)”, the figures for the binding entry in [4] and in [5] were “binds weakly” and “binds”, respectively.
Turning to “PEAK1 phosphorylated at Y724, endogenous in Caco-2 cells (from UniProt Q9H792 1-1746)”, in test [3], the binding result is “binds”.
As to “ZO-1 in HEK293T cell lysate (from UniProt Q07157 1-1748)”, the binding entry in test [6], in test [7], in test [8], in test [1], in test [9] and in test [10] was “binds” each time. Moreover, in test [11], the binding entry was “binds”.
Take “ZO-1, endogenous in Caco-2 cells (from UniProt Q07157 1-1748)”: the binding entry in test [2] was “binds”.

B1: Occludin, endogenous in Caco-2 cells (protein, UniProt Q16625 1-522)
chain: MSSRPLESPPPYRPDEFKPNHYAPSNDIYGGEMHVRPMLSQPAYSFYPEDEILHFYKWTSPPGVIRILSMLIIVMCIAIFACVASTLAWDRGYGTSLLGGSVGYPYGGSGFGSYGSGYGYGYGYGYGYGGYTDPRAAKGFMLAMAAFCFIAALVIFVTSVIRSEMSRTRRYYLSVIIVSAILGIMVFIATIVYIMGVNPTAQSSGSLYGSQIYALCNQFYTPAATGLYVDQYLYHYCVVDPQEAIAIVLGFMIIVAFALIIFFAVKTRRKMDRYDKSNILWDKEHIYDEQPPNVEEWVKNVSAGTQDVPSPPSDYVERVDSPMAYSSNGKVNDKRFYPESSYKSTPVPEVVQELPLTSPVDDFRQPRYSSGGNFETPSKRAPAKGRAGRSKRTEQDHYETDYTTGGESCDELEEDWIREYPPITSDQQRQLYKRNFDTGLQEYKSLQSELDEINKELSRLDKELDDYREESEEYMAAADEYNRLKQVKGSADYKSKKNHCKQLKSKLSHIKKMVGDYDRQKT
Take B1: the binding result in test [12] and in [13] was “binds” in each case.

The values are drawn from paper PMC12290104, “PEAK1 maintains tight junctions in intestinal epithelial cells and resists colitis by inhibiting autophagy-mediated ZO-1 degradation” (Nature Communications, 2025).
